Among all 50,000 compounds or so, about 800 (1.6%) showed an effect of 50% or more. This is one part of the list.
Molecular target: Bcl-2-like protein 10 (Homo sapiens) (UniProt Q9HD36)
Test: TR3 peptide-Bcl-B binding displacers, biochemical primary FP assay, phenotype converters (AID 1240);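 note: 0% = Bcl-B with tracer peptide and DMSO and 100% = tracer peptide lacking Bcl-B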
Details: GST-Bcl-B / FITC-TR3 peptide fluorescence polarization; stronger effect = higher value; compound at 3.75 mg/L

Sequence of UniProt Q9HD36 (Q9HD36 whole entry, looked up): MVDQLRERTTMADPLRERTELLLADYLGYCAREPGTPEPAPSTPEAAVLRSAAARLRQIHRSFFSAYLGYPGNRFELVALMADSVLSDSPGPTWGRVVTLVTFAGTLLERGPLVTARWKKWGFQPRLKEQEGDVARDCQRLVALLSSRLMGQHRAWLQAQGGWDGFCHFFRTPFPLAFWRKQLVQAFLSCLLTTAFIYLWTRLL

Q: Which displacement does the source give for `CCOc1ccccc1N1C(=O)c2cccc3cccc(c23)C1=O` here?
A: -1.8%

Q: For `CCN(CC)c1ccc(N=Cc2ccc3ccccc3c2)cc1`, which displacement is on record?
A: -6.1%

Q: How did the displacement turn out when `CCOc1ccc(C(=O)Nc2nnc(CC)s2)cc1[N+](=O)[O-]` was run?
A: 9.6%

Q: Which displacement does the source give for `COc1ccc(C2CC(C(F)(F)F)n3ncc(C(=O)Nc4cccc(C(C)O)c4)c3N2)cc1OC` (stereo not drawn) here?
A: 4.2%

Q: For `C/C(=N/N1CCN(Cc2ccccc2)CC1)c1ccc(Cl)cc1`, which displacement is on record?
A: -4.7%

Q: For `O=C(O)c1cc(-c2cn[nH]c2-c2ccccc2)nc2ccc3ccccc3c12`, which displacement is on record?
A: -10.8%

Q: Which displacement does the source give for `CCOc1cc(/C=C2/C(=O)NC(=O)N(c3ccc(C(C)C)cc3)C2=O)ccc1OCC(=O)O` here?
A: -14%

Q: With `O=C(NCc1ccco1)N1CCCCC1` as the compound, how does the displacement read?
A: -1.7%

Q: With `COc1ccccc1N(CC(=O)NCCC1=CCCCC1)S(=O)(=O)c1ccccc1` as the compound, how does the displacement read?
A: -16.5%

Q: With `CC(C)(CNC(=O)c1cccnc1)CNC(=O)c1cccnc1` as the compound, how does the displacement read?
A: 7.9%

Q: `Cn1ccnc1-c1ccc(-c2nccn2C)cc1` was tested. Which displacement did it give?
A: 11.8%

Q: For `Cc1cc(C)n(-c2nc(Nc3ccc(Br)cc3)nc(-n3nc(C)cc3C)n2)n1`, which displacement is on record?
A: 28.1%

Q: Which displacement does the source give for `Nc1nc(-c2ccc3c(c2)OCO3)cs1` here?
A: 13.6%

Q: With `CCOc1ccc(C(=O)Nc2cccc(-c3nc4cc(CC)ccc4o3)c2)cc1[N+](=O)[O-]` as the compound, how does the displacement read?
A: 20.5%

Q: With `COc1cccc(/C=C2\N=C(c3cccs3)OC2=O)c1OC` as the compound, how does the displacement read?
A: 59.5%

Q: `CC(C)Nc1nc(-c2ccc(Cl)cc2)nc2ccccc12` was tested. Which displacement did it give?
A: 15.9%

Q: `CC(=O)N1CCN(c2ccc(NC(=O)c3ccccc3Br)cc2)CC1` was tested. Which displacement did it give?
A: 5.6%

Q: How did the displacement turn out when `Cc1ccccc1NC(=O)CSc1ccccc1` was run?
A: 8.5%

Q: How did the displacement turn out when `O=C(Nc1ccccc1C(F)(F)F)c1cc2ccccc2oc1=O` was run?
A: -2.3%

Q: Which displacement does the source give for `CCc1ccccc1NC(=O)CN(c1cc(OC)ccc1OC)S(C)(=O)=O` here?
A: 15%

Q: Which displacement does the source give for `CCOc1ccc(C2=C/C(=C/c3ccc(I)o3)C(=O)O2)cc1` here?
A: -1.7%

Q: How did the displacement turn out when `CCCCSc1nc2cc(C)ccc2n1C` was run?
A: 4.8%

Q: For `CCOC(=O)C1=C(O)/C(=C\c2ccccc2[N+](=O)[O-])N=C1C`, which displacement is on record?
A: 15.7%

Q: How did the displacement turn out when `O=C(/C=C/c1cccs1)Nc1ncc(Cc2ccc(F)cc2)s1` was run?
A: -4.5%

Q: `Cc1ccc(C(=O)c2ccc(Br)cc2)cc1S(=O)(=O)NCc1ccccc1` was tested. Which displacement did it give?
A: -3.6%

Q: Which displacement does the source give for `Cc1c(-c2ccc(Cl)cc2Cl)nc2ccccc2c1C(=O)O` here?
A: -9.9%

Q: `O=C(Nc1ccc(Br)cc1)C1C2/C=C\CCCCC21` (stereo not drawn) was tested. Which displacement did it give?
A: -15.9%

Q: Which displacement does the source give for `COc1cccc(/C=C2/C(=O)NC(=S)N(c3cccc(Br)c3)C2=O)c1O` here?
A: 5.4%

Q: With `COc1cccc(N(C=O)C(=O)C2C3C=CC(C3=C3CCCC3)C2C)c1` (stereo not drawn) as the compound, how does the displacement read?
A: -7.1%

Q: Which displacement does the source give for `CCOc1ccccc1/C=C1/SC(NC(C)=O)=NC1=O` here?
A: 12.9%

Q: For `COC(=O)CN1C(=O)/C(=C/c2ccc(OCc3ccccc3Cl)c(OC)c2)SC1=S`, which displacement is on record?
A: 10.3%

Q: With `CCOc1ccc(C(=O)Nc2ccc(NC(=O)c3ccco3)c(OC)c2)cc1[N+](=O)[O-]` as the compound, how does the displacement read?
A: 0.7%

Q: `COc1cc(NC(=O)Cc2ccc(Cl)cc2)cc(OC)c1` was tested. Which displacement did it give?
A: -0.3%

Q: With `O=C(O)c1ccc(-c2ccc(OC(F)(F)F)cc2)o1` as the compound, how does the displacement read?
A: -7.6%

Q: Which displacement does the source give for `COc1ccccc1/C=C1/SC(=S)N(CCC(=O)Nc2c(C)n(C)n(-c3ccccc3)c2=O)C1=O` here?
A: 1.9%

Q: With `COc1cc(/C=N/NC(=O)c2cccnc2)cc(OC)c1O` as the compound, how does the displacement read?
A: 5.1%

Q: How did the displacement turn out when `CCOC(=O)c1ccc(NC(=O)c2cc(OCC)cc(OCC)c2)cc1` was run?
A: 14.2%

Q: Which displacement does the source give for `Cc1c(C(=O)Nc2ccc(I)cc2Cl)oc2ccc(Cl)cc12` here?
A: -8.7%

Q: `COc1ccccc1NC(=O)Nc1cccc2cccnc12` was tested. Which displacement did it give?
A: -10.4%

Q: For `CN1CCN(S(=O)(=O)c2ccc(-c3ccc(S(=O)(=O)N4CCN(C)CC4)cc3)cc2)CC1`, which displacement is on record?
A: 3.8%

Q: For `O=[N+]([O-])c1ccc(N2CCN(S(=O)(=O)c3ccccc3)CC2)cc1NCCc1ccccc1`, which displacement is on record?
A: 7.8%

Q: For `CCOc1ccc(NC(=O)CC2S/C(=N\N=C3/C=C(C)CC(C)(C)C3)NC2=O)cc1` (stereo not drawn), which displacement is on record?
A: -3.9%

Q: How did the displacement turn out when `C=CCNC(=O)COc1cc(C)c(Cl)c(C)c1` was run?
A: -8.5%

Q: `Cc1ccc2nc(SCC(=O)Nc3ccc(/C=C/c4ccccc4)cc3)[nH]c2c1` was tested. Which displacement did it give?
A: 4%

Q: With `O=C(CCNC(=O)/C(=C\c1cccc([N+](=O)[O-])c1)NC(=O)c1ccco1)OCc1ccccc1` as the compound, how does the displacement read?
A: 0.4%

Q: With `Cc1ccc(S(=O)(=O)Nc2ccc(OC(=O)c3ccc(Cl)cc3)cc2)c(C)c1` as the compound, how does the displacement read?
A: 5.5%

Q: How did the displacement turn out when `COc1ccc(Nc2ncnc3ccc(C)cc23)cc1` was run?
A: 9%

Q: `CCCC(C)NC(=O)c1c(-c2c(Cl)cccc2Cl)noc1C` (stereo not drawn) was tested. Which displacement did it give?
A: -5.9%

Q: For `O=C(NC(=S)Nc1cc([N+](=O)[O-])cc(Cl)c1O)c1ccc(Br)cc1`, which displacement is on record?
A: -13.6%

Q: `COc1cc(/C=C2\C(=O)NN(c3ccc(Cl)c(Cl)c3)C2=O)c([N+](=O)[O-])cc1OC` was tested. Which displacement did it give?
A: 16.2%

Q: With `COC(=O)c1c(NC(=O)CCN2C(=O)c3ccccc3C2=O)sc2c1C(C(=O)OC)CC2` (stereo not drawn) as the compound, how does the displacement read?
A: -18.6%

Q: With `O=C1C(=O)N(c2cccc(Br)c2)C(c2cccc([N+](=O)[O-])c2)/C1=C(/O)c1ccccc1` (stereo not drawn) as the compound, how does the displacement read?
A: -7.6%

Q: How did the displacement turn out when `CCN(CC)c1ccc(/C=C2/C(=O)NN(c3ccc(C)c(Cl)c3)C2=O)c(O)c1` was run?
A: 59.2%

Q: Which displacement does the source give for `COc1ccc(C2CC(C(F)(F)F)n3ncc(C(=O)NCc4ccco4)c3N2)cc1OC` (stereo not drawn) here?
A: 0.5%

Q: With `CC(=O)Nc1ccc(S(=O)(=O)Nc2cccc3cccnc23)cc1` as the compound, how does the displacement read?
A: -24.6%

Q: Which displacement does the source give for `CCOC(=O)c1c(NC(C)=O)sc2c1CCc1ccccc1-2` here?
A: -8.5%

Q: How did the displacement turn out when `CS(=O)(=O)N(Cc1ccccc1)c1ccc(C(=O)N2CCc3ccccc3C2)cc1` was run?
A: 3.7%

Q: Which displacement does the source give for `CC(C)CN1C(=O)c2ccc(C(=O)NC3CCCCC3)cc2C1=O` here?
A: 10.4%

Q: `Cc1cc(=O)oc2cc(OCC(=O)OCc3ccccc3)c(Cl)cc12` was tested. Which displacement did it give?
A: -6.4%

Q: `CCOC(=O)Cn1c(=N)n(Cc2ccccc2Cl)c2ccccc21` was tested. Which displacement did it give?
A: 3.5%

Q: For `COc1ccccc1/C=C(\NC(=O)c1ccccc1)C(=O)NCc1ccco1`, which displacement is on record?
A: -2.4%

Q: Which displacement does the source give for `CC(C)CNC(=O)c1ccc2c(c1)C(=O)N(CC(C)C)C2=O` here?
A: 5.1%

Q: How did the displacement turn out when `CCOC(=O)C1=C(C)N=c2s/c(=C/c3ccc(OC)cc3)c(=O)n2C1c1sccc1C` (stereo not drawn) was run?
A: 4.4%

Q: For `Cc1ccc(-n2cnc3sc(C)c(C)c3c2=O)cc1`, which displacement is on record?
A: -0.9%

Q: For `COc1ccc(C(=O)Nc2nc(C)c(C(C)=O)s2)cc1`, which displacement is on record?
A: 3.9%

Q: Which displacement does the source give for `CCOC(=O)c1c(NC(=O)c2ccccc2F)sc(C(=O)Nc2ccc3c(c2)OCO3)c1C` here?
A: -9.3%

Q: `O=C(NCc1cccs1)C(=O)Nc1cccc(C(F)(F)F)c1` was tested. Which displacement did it give?
A: 8.3%

Q: `CCCCSc1nc2ccc(NC(C)=O)cc2s1` was tested. Which displacement did it give?
A: -3.2%

Source: PubChem BioAssay AID1240 (Sanford-Burnham Center for Chemical Genomics, 2008)
